# From the supplement of paper PMC8728848
# The other results are listed elsewhere or left out.
# B1: Epa1to9 (Candida glabrata) (protein)
# chain: MGSSHHHHHHSSGLVPRGSHMTSSNDISLASKDPTTFPLGCSPDITTPKKGLSMELYSYDFRKKGSYPCWDAAYLDPNYPRTGYKSHRLLAKVDGVTGNINFYYHATKGCTPQLGHLPASYNYPKPLTMTNFTMLLYGYFRPKVTGFHTFTISADDLLFVNFGAGNAFDCCRRDSSADHFGNYQAYAIWGSKTAKDELTVHLDAGVYYPIRLFYNNRDYHGALSFTFKTESNENTVSDFSEYFFSLDDTEEGCPGLISYD
# What was measured:
# Test in all cases: glycan array binding signal (z-score within array); higher = stronger binding
# Details in all cases: glycan notation: IUPAC condensed, linker removed
# [1] = target: GlcNAc(b1-3)Gal(b1-4)GlcNAc(b1-3)Gal(b1-4)GlcNAc(b1-3)Gal(b1-4)GlcNAc(b1-3)Gal(b1-4)GlcNAc(b1-2)[GlcNAc(b1-3)Gal(b1-4)GlcNAc(b1-3)Gal(b1-4)GlcNAc(b1-3)Gal(b1-4)GlcNAc(b1-3)Gal(b1-4)GlcNAc(b1-6)]Man(a1-6)[GlcNAc(b1-3)Gal(b1-4)GlcNAc(b1-3)Gal(b1-4)GlcNAc(b1-3)Gal(b1-4)GlcNAc(b1-3)Gal(b1-4)GlcNAc(b1-2)Man(a1-3)]Man(b1-4)GlcNAc(b1-4)[Fuc(a1-6)]GlcNAc
# Procedure, shortened: (§1)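 Glycan array data came from 3228 arrays in the Consortium for Functional Glycomics database, and only arrays with an available protein sequence were kept. Glycan names were put into IUPAC-condensed notation, and columns mapping to the same glycan were averaged. The binding signal is a within-array Z-score, averaged across arrays of one protein sequence run at different concentrations or buffers and across linkers. A negative Z-score can be read as non-binding.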
# [2] = target: GlcNAc(b1-3)Gal(b1-4)GlcNAc(b1-3)Gal(b1-4)GlcNAc(b1-3)GalNAc
# Procedure, shortened: as §1
# [3] = target: GlcNAc(b1-3)Gal(b1-4)GlcNAc(b1-3)GalNAc
# Procedure, shortened: as §1
# [4] = target: GlcNAc(b1-3)Gal(b1-4)GlcNAc(b1-3)[GlcNAc(b1-3)Gal(b1-4)GlcNAc(b1-3)]GalNAc
# Procedure, shortened: as §1
# [5] = target: GlcNAc(b1-3)Gal(b1-4)GlcNAc(b1-6)[Gal(b1-3)]GalNAc
# Procedure, shortened: as §1
# [6] = target: GlcNAc(b1-3)Gal(b1-4)GlcNAc(b1-6)[GlcNAc(b1-3)Gal(b1-3)]GalNAc
# Procedure, shortened: as §1
# [7] = target: GlcNAc(b1-3)Gal(b1-4)GlcNAc(b1-6)[GlcNAc(b1-3)]Gal(b1-4)GlcNAc
# Procedure, shortened: as §1
# GlcNAc(b1-3)GalNAc = target: GlcNAc(b1-3)GalNAc
# Procedure, shortened: as §1
# GlcNAc(b1-3)Man = target: GlcNAc(b1-3)Man
# Procedure, shortened: as §1
# [8] = target: GlcNAc(b1-3)[GlcNAc(b1-4)][GlcNAc(b1-6)]GlcNAc
# Procedure, shortened: as §1
# [9] = target: GlcNAc(b1-3)[GlcNAc(b1-6)]Gal(b1-4)GlcNAc
# Procedure, shortened: as §1
# [10] = target: GlcNAc(b1-3)[GlcNAc(b1-6)]GalNAc
# Procedure, shortened: as §1
# [11] = target: GlcNAc(b1-4)Gal(b1-4)GlcNAc
# Procedure, shortened: as §1
# GlcNAc(b1-4)GlcNAc = target: GlcNAc(b1-4)GlcNAc
# Procedure, shortened: as §1
# [12] = target: GlcNAc(b1-4)GlcNAc(b1-4)GlcNAc
# Procedure, shortened: as §1
# [13] = target: GlcNAc(b1-4)GlcNAc(b1-4)GlcNAc(b1-4)GlcNAc(b1-4)GlcNAc
# Procedure, shortened: as §1
# [14] = target: GlcNAc(b1-4)GlcNAc(b1-4)GlcNAc(b1-4)GlcNAc(b1-4)GlcNAc(b1-4)GlcNAc
# Procedure, shortened: as §1
# [15] = target: GlcNAc(b1-4)[GlcNAc(b1-6)]GalNAc
# Procedure, shortened: as §1
# [16] = target: GlcNAc(b1-6)Gal(b1-4)GlcNAc
# Procedure, shortened: as §1
# GlcNAc(b1-6)GalNAc = target: GlcNAc(b1-6)GalNAc
# Procedure, shortened: as §1
# [17] = target: GlcNAc6S(b1-3)Gal(b1-4)GlcNAc
# Procedure, shortened: as §1
# Kdn(a2-3)Gal(b1-3)GalNAc = target: Kdn(a2-3)Gal(b1-3)GalNAc
# Procedure, shortened: as §1
# Kdn(a2-3)Gal(b1-3)GlcNAc = target: Kdn(a2-3)Gal(b1-3)GlcNAc
# Procedure, shortened: as §1
# Kdn(a2-3)Gal(b1-4)Glc = target: Kdn(a2-3)Gal(b1-4)Glc
# Procedure, shortened: as §1
# Kdn(a2-3)Gal(b1-4)GlcNAc = target: Kdn(a2-3)Gal(b1-4)GlcNAc
# Procedure, shortened: as §1
# [18] = target: Kdn(a2-3)Gal(b1-4)[Fuc(a1-3)]GlcNAc
# Procedure, shortened: as §1
# Kdn(a2-6)Gal(b1-4)GlcNAc = target: Kdn(a2-6)Gal(b1-4)GlcNAc
# Procedure, shortened: as §1
# [19] = target: Man(a1-2)Man(a1-2)Man(a1-3)Man
# Procedure, shortened: as §1
# [20] = target: Man(a1-2)Man(a1-2)Man(a1-6)[Man(a1-3)]Man
# Procedure, shortened: as §1
# Man(a1-2)Man(a1-3)Man = target: Man(a1-2)Man(a1-3)Man
# Procedure, shortened: as §1
# [21] = target: Man(a1-2)Man(a1-3)[Man(a1-2)Man(a1-6)]Man
# Procedure, shortened: as §1
# [22] = target: Man(a1-2)Man(a1-3)[Man(a1-2)Man(a1-6)]Man(a1-6)[Man(a1-2)Man(a1-2)Man(a1-3)]Man
# Procedure, shortened: as §1
# [23] = target: Man(a1-2)Man(a1-3)[Man(a1-2)Man(a1-6)]Man(a1-6)[Man(a1-2)Man(a1-2)Man(a1-3)]Man(b1-4)GlcNAc(b1-4)GlcNAc
# Procedure, shortened: as §1
# [24] = target: Man(a1-2)Man(a1-3)[Man(a1-6)]Man(a1-6)[Man(a1-2)Man(a1-3)]Man(b1-4)GlcNAc(b1-4)GlcNAc
# Procedure, shortened: as §1
# [25] = target: Man(a1-2)Man(a1-6)[Man(a1-3)]Man(a1-6)[Man(a1-2)Man(a1-2)Man(a1-3)]Man
# Procedure, shortened: as §1
# [26] = target: Man(a1-2)Man(a1-6)[Man(a1-3)]Man(a1-6)[Man(a1-2)Man(a1-2)Man(a1-3)]Man(b1-4)GlcNAc(b1-4)GlcNAc
# Procedure, shortened: as §1
# Man(a1-3)[Man(a1-6)]Man = target: Man(a1-3)[Man(a1-6)]Man
# Procedure, shortened: as §1
binder,measurement,setting,value
B1,glycan array binding signal (z-score),[1],-0.297
same,glycan array binding signal (z-score),[2],-0.354
same,glycan array binding signal (z-score),[3],-0.347
same,glycan array binding signal (z-score),[4],-0.285
same,glycan array binding signal (z-score),[5],0.585
same,glycan array binding signal (z-score),[6],-0.332
same,glycan array binding signal (z-score),[7],-0.35
same,glycan array binding signal (z-score),GlcNAc(b1-3)GalNAc,-0.352
same,glycan array binding signal (z-score),GlcNAc(b1-3)Man,-0.495
same,glycan array binding signal (z-score),[8],-0.347
same,glycan array binding signal (z-score),[9],-0.347
same,glycan array binding signal (z-score),[10],-0.342
same,glycan array binding signal (z-score),[11],-0.339
same,glycan array binding signal (z-score),GlcNAc(b1-4)GlcNAc,-0.419
same,glycan array binding signal (z-score),[12],-0.353
same,glycan array binding signal (z-score),[13],-0.346
same,glycan array binding signal (z-score),[14],-0.351
same,glycan array binding signal (z-score),[15],-0.353
same,glycan array binding signal (z-score),[16],1.05
same,glycan array binding signal (z-score),GlcNAc(b1-6)GalNAc,-0.357
same,glycan array binding signal (z-score),[17],0.811
same,glycan array binding signal (z-score),Kdn(a2-3)Gal(b1-3)GalNAc,-0.38
same,glycan array binding signal (z-score),Kdn(a2-3)Gal(b1-3)GlcNAc,-0.312
same,glycan array binding signal (z-score),Kdn(a2-3)Gal(b1-4)Glc,-0.306
same,glycan array binding signal (z-score),Kdn(a2-3)Gal(b1-4)GlcNAc,-0.295
same,glycan array binding signal (z-score),[18],-0.241
same,glycan array binding signal (z-score),Kdn(a2-6)Gal(b1-4)GlcNAc,-0.284
same,glycan array binding signal (z-score),[19],-0.358
same,glycan array binding signal (z-score),[20],-0.345
same,glycan array binding signal (z-score),Man(a1-2)Man(a1-3)Man,-0.36
same,glycan array binding signal (z-score),[21],-0.366
same,glycan array binding signal (z-score),[22],-0.377
same,glycan array binding signal (z-score),[23],-0.336
same,glycan array binding signal (z-score),[24],-0.358
same,glycan array binding signal (z-score),[25],-0.478
same,glycan array binding signal (z-score),[26],-0.362
same,glycan array binding signal (z-score),Man(a1-3)[Man(a1-6)]Man,-0.287
